# Assay results reported in the supplement of paper PMC8728848.
# This is one part of the list.
# B1: LecRKVI.2 (protein)
# chain: RTTTNFAFRGFNGNQSKIRIEGAAMIKPDGLLRLTDRKSNVTGTAFYHKPVRLLNRNSTNVTIRSFSTSFVFVIIPSSSSNKGFGFTFTLSPTPYRLNAGSAQYLGVFNKENNGDPRNHVFAVEFDTVQGSRDDNTDRIGNDIGLNYNSRTSDLQEPVVYYNNDDHNKKEDFQLESGNPIQALLEYDGATQMLNVTVYPARLGFKPTKPLISQHVPKLLEIVQEEMYVGFTASTGKGQSSAHYVMGWSFSSGGERPIADVLILSELPPPPPNKAKKEGLNS
# Legend:
# Test in all cases: glycan array binding signal (z-score within array); higher = stronger binding
# Conditions in all cases: glycan notation: IUPAC condensed, linker removed
# [1] = target: Fuc(a1-2)Gal(b1-4)GlcNAc(b1-3)Gal(b1-4)GlcNAc(b1-3)Gal(b1-4)GlcNAc
# Outline: (§1)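 Glycan array data were curated from 3228 arrays in the Consortium for Functional Glycomics database and kept only where the protein sequence was available. Glycan names were converted to IUPAC-condensed notation, and columns mapping to the same glycan were averaged. The binding signal is a within-array Z-score, averaged across arrays of the same protein sequence at different concentrations or buffers and across linkers. Negative Z-scores can be read as non-binding.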
# [2] = target: Fuc(a1-2)Gal(b1-4)GlcNAc(b1-3)GalNAc
# Outline: as §1
# [3] = target: Fuc(a1-2)Gal(b1-4)GlcNAc(b1-3)[Fuc(a1-2)Gal(b1-4)GlcNAc(b1-6)]GalNAc
# Outline: as §1
# [4] = target: Fuc(a1-2)Gal(b1-4)GlcNAc(b1-3)[Fuc(a1-3)[Gal(b1-4)]GlcNAc(b1-6)]Gal(b1-4)Glc
# Outline: as §1
# [5] = target: Fuc(a1-2)Gal(b1-4)GlcNAc(b1-6)GalNAc
# Outline: as §1
# [6] = target: Fuc(a1-2)Gal(b1-4)GlcNAc6S
# Outline: as §1
# [7] = target: Fuc(a1-2)Gal(b1-4)[Fuc(a1-3)]GlcNAc
# Outline: as §1
# [8] = target: Fuc(a1-2)Gal(b1-4)[Fuc(a1-3)]GlcNAc(b1-2)Man(a1-3)[Fuc(a1-2)Gal(b1-4)[Fuc(a1-3)]GlcNAc(b1-2)Man(a1-6)]Man(b1-4)GlcNAc(b1-4)[Fuc(a1-6)]GlcNAc
# Outline: as §1
# [9] = target: Fuc(a1-2)Gal(b1-4)[Fuc(a1-3)]GlcNAc(b1-2)[Fuc(a1-2)Gal(b1-4)[Fuc(a1-3)]GlcNAc(b1-4)]Man(a1-3)[Fuc(a1-2)Gal(b1-4)[Fuc(a1-3)]GlcNAc(b1-2)Man(a1-6)]Man(b1-4)GlcNAc(b1-4)GlcNAc
# Outline: as §1
# [10] = target: Fuc(a1-2)Gal(b1-4)[Fuc(a1-3)]GlcNAc(b1-3)Gal(b1-4)[Fuc(a1-3)]GlcNAc
# Outline: as §1
# [11] = target: Fuc(a1-2)Gal(b1-4)[Fuc(a1-3)]GlcNAc(b1-3)Gal(b1-4)[Fuc(a1-3)]GlcNAc(b1-3)Gal(b1-4)[Fuc(a1-3)]GlcNAc
# Outline: as §1
# [12] = target: Fuc(a1-2)Gal(b1-4)[Fuc(a1-3)]GlcNAc(b1-3)GalNAc
# Outline: as §1
# [13] = target: Fuc(a1-2)Gal(b1-4)[Fuc(a1-3)]GlcNAc(b1-3)[Neu5Ac(a2-6)Gal(b1-4)GlcNAc(b1-6)]Gal(b1-4)Glc
# Outline: as §1
# [14] = target: Fuc(a1-2)Gal3S(b1-4)GlcNAc
# Outline: as §1
# [15] = target: Fuc(a1-2)Gal6S(b1-3)GlcNAc
# Outline: as §1
# [16] = target: Fuc(a1-2)Gal6S(b1-3)GlcNAc6S
# Outline: as §1
# Fuc(a1-2)Gal6S(b1-4)Glc = target: Fuc(a1-2)Gal6S(b1-4)Glc
# Outline: as §1
# [17] = target: Fuc(a1-2)Gal6S(b1-4)Glc6S
# Outline: as §1
# Fuc(a1-2)[Gal(a1-3)]Gal = target: Fuc(a1-2)[Gal(a1-3)]Gal
# Outline: as §1
# [18] = target: Fuc(a1-2)[Gal(a1-3)]Gal(b1-3)GalNAc
# Outline: as §1
# [19] = target: Fuc(a1-2)[Gal(a1-3)]Gal(b1-3)GalNAc(b1-3)Gal(a1-4)Gal(b1-4)Glc
# Outline: as §1
# [20] = target: Fuc(a1-2)[Gal(a1-3)]Gal(b1-3)GlcNAc
# Outline: as §1
# [21] = target: Fuc(a1-2)[Gal(a1-3)]Gal(b1-3)GlcNAc(b1-2)Man(a1-3)[Fuc(a1-2)[Gal(a1-3)]Gal(b1-3)GlcNAc(b1-2)Man(a1-6)]Man(b1-4)GlcNAc(b1-4)GlcNAc
# Outline: as §1
# [22] = target: Fuc(a1-2)[Gal(a1-3)]Gal(b1-3)GlcNAc(b1-2)Man(a1-3)[Fuc(a1-2)[Gal(a1-3)]Gal(b1-3)GlcNAc(b1-2)Man(a1-6)]Man(b1-4)GlcNAc(b1-4)[Fuc(a1-6)]GlcNAc
# Outline: as §1
# [23] = target: Fuc(a1-2)[Gal(a1-3)]Gal(b1-3)GlcNAc(b1-3)GalNAc
# Outline: as §1
# [24] = target: Fuc(a1-2)[Gal(a1-3)]Gal(b1-3)GlcNAc(b1-6)GalNAc
# Outline: as §1
# [25] = target: Fuc(a1-2)[Gal(a1-3)]Gal(b1-4)Glc
# Outline: as §1
# [26] = target: Fuc(a1-2)[Gal(a1-3)]Gal(b1-4)GlcNAc
# Outline: as §1
# [27] = target: Fuc(a1-2)[Gal(a1-3)]Gal(b1-4)GlcNAc(b1-2)Man
# Outline: as §1
# [28] = target: Fuc(a1-2)[Gal(a1-3)]Gal(b1-4)GlcNAc(b1-2)Man(a1-3)[Fuc(a1-2)[Gal(a1-3)]Gal(b1-4)GlcNAc(b1-2)Man(a1-6)]Man(b1-4)GlcNAc(b1-4)GlcNAc
# Outline: as §1
binder,measurement,setting,value
B1,glycan array binding signal (z-score),[1],-0.314
same,glycan array binding signal (z-score),[2],-0.305
same,glycan array binding signal (z-score),[3],0.911
same,glycan array binding signal (z-score),[4],-0.413
same,glycan array binding signal (z-score),[5],-0.297
same,glycan array binding signal (z-score),[6],-0.419
same,glycan array binding signal (z-score),[7],-0.399
same,glycan array binding signal (z-score),[8],-0.315
same,glycan array binding signal (z-score),[9],-0.003
same,glycan array binding signal (z-score),[10],-0.315
same,glycan array binding signal (z-score),[11],-0.413
same,glycan array binding signal (z-score),[12],4.76
same,glycan array binding signal (z-score),[13],-0.288
same,glycan array binding signal (z-score),[14],-0.468
same,glycan array binding signal (z-score),[15],-0.432
same,glycan array binding signal (z-score),[16],-0.288
same,glycan array binding signal (z-score),Fuc(a1-2)Gal6S(b1-4)Glc,-0.362
same,glycan array binding signal (z-score),[17],0.023
same,glycan array binding signal (z-score),Fuc(a1-2)[Gal(a1-3)]Gal,-0.37
same,glycan array binding signal (z-score),[18],-0.358
same,glycan array binding signal (z-score),[19],-0.403
same,glycan array binding signal (z-score),[20],-0.329
same,glycan array binding signal (z-score),[21],0.691
same,glycan array binding signal (z-score),[22],-0.246
same,glycan array binding signal (z-score),[23],-0.414
same,glycan array binding signal (z-score),[24],-0.407
same,glycan array binding signal (z-score),[25],-0.169
same,glycan array binding signal (z-score),[26],-0.264
same,glycan array binding signal (z-score),[27],-0.253
same,glycan array binding signal (z-score),[28],0.276
